Reference: PubChem BioAssay AID624296 (National Center for Advancing Translational Sciences (NCATS), 2012)
Hit rate of the full screen: of about 350,000 compounds, about 9,900 (2.8%) were called active. The shares of active, inactive and inconclusive entries below differ from those in the screen. Calls come from the whole dose curve; as a rule, active = well fitted activation curve with a large enough effect; inconclusive = small, poorly fitted or top-dose-only effect; inactive = no such curve, though single readings can be large or run the other way. No potency is given beside an inconclusive call; the fits are too rough.

experiment: A quantitative high throughput screen for small molecules that induce DNA re-replication in MCF 10a normal breast cells.; note: nearly all actives have a fitted effect of over 50% in size; conditions: MCF 10A DNA re-replication, Hoechst nuclear intensity, 48 h; series mostly up to 46.1 µM
Potency is the fitted concentration of half-maximal effect; tags give direction and shape of the fitted curve.

| SMILES | Potency |
| --- | --- |
| COc1cc(C(=O)N2CCN(c3cc(Cl)ccc3Cl)CC2)cc(OC)c1OC | inconclusive [activator, full curve, poor fit] |
| S=C1NCN(Cc2cccnc2)CN1c1cccc(Cl)c1 | inactive |
| CC(=O)Nc1ccc(/C=C2\CCc3ccccc3C2=O)cc1 | inactive |
| CCOC(=O)c1ccc(N2C(=O)C(CC(=O)NC)N(CCc3ccc(OC)c(OC)c3)C2=S)cc1 (centres undefined) | active: 20.6 µM |
| C#CCOCCOCCOCCNc1nc(N2CCN(C(=O)CCCCCCCCCCNC(=O)Cn3cc(C[C@@H](C)O)nn3)CC2)nc(N2CCN(C(=O)CCCCCCCCCCNC(=O)[C@@H](CCSC)n3cc(CCO)nn3)CC2)n1 | inconclusive [activator, partial curve, poor fit] |
| CCOc1ccc(-c2ccc(SC)nn2)cc1 | inactive |
| Nc1cc2nn(-c3ccccc3)nc2cc1Cl | active: 18.4 µM |
| Cc1ccc(C)c2sc(NC(=O)C3CC3)nc12 | inactive |
| CCOC(=O)c1cnc(-n2nc(C)cc2C)nc1Oc1ccc(C#N)cc1 | inactive |
| O=c1[nH]c2ccc(S(=O)(=O)N3CCN(c4ccccc4F)CC3)cc2s1 | inconclusive [activator, single point] |
| CCn1c2ccccc2c2nc3cc(OC)c(OC)cc3nc21 | active: 2.91 µM |
| CCOC(=O)c1c(C)[nH]c(C2=NNC(=Nc3ccccc3)SC2)c1C | inconclusive [activator, partial curve, poor fit] |
| c1ccc2c(c1)oc1c(Nc3ccc4c(c3)OCCO4)ncnc12 | inconclusive [activator, partial curve, poor fit] |
| CC(Oc1ccc(Cl)cc1Cl)C(=O)NCc1ccncc1 (centres undefined) | inactive |
| N/C(=N\OCC(=O)Nc1ccc(F)c(Cl)c1)c1ccccc1 | inconclusive [activator, partial curve, poor fit] |
| C=CCNc1nc(Nc2ccc(-c3nc4ccccc4o3)cc2)nc(N2CCOCC2)n1 | inconclusive [activator, single point] |
| Cc1ccc(N(C(=O)Cc2c[nH]c3ccccc23)C(C(=O)NC2CCCCC2)c2ccco2)cc1 (centres undefined) | inconclusive [activator, single point] |
| COc1ccc(C=NN=C2c3ccccc3-c3ccccc32)cc1O | inconclusive [activator, single point] |
| COc1cc(/C=C/C(=O)OCC(=O)Nc2nnc(-c3ccccc3)o2)cc(OC)c1OC | inconclusive [activator, single point] |
